Results: the supplement of paper PMC3334620
Over roughly 33,000 sequences, “E-score (-0.5 to 0.5)” has its median near -0.017; the highest 2% begin near 0.3. The list shows a part of the results.

target: T1, Sut1 (UniProt P53032); experiment: PBM E-score (8-mer binding enrichment) (E-score (-0.5 to 0.5)); higher = stronger / more preferred TF binding; most listed sequences are background and not binding sites; details: protein concentration: 200 nM; construct: GST-full length
T1 sequence: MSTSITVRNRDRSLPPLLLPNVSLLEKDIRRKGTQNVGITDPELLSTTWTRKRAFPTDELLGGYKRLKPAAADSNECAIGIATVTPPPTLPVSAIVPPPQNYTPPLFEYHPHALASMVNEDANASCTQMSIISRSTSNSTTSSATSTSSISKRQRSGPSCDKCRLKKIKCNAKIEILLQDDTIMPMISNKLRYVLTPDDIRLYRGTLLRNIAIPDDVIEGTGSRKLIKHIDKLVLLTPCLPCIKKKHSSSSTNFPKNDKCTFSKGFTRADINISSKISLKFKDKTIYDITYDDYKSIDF
In short: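 Yeast transcription factors, full-length or as DNA-binding domains, were expressed with a GST tag using PURExpress in vitro transcription/translation. At about 100-200 nM they were applied to universal all-10-mer Agilent arrays, double-stranded by primer extension on fresh or once-stripped slides. Fluorescent anti-GST detected bound protein, and masliner normalised the scans. E-scores for ungapped eight-base words, pooled with reverse complements, came from the Universal PBM Analysis Suite.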

Row | Sequence | PBM E-score
1 | ATTCACAA | 0.259
2 | ACTAAAGG | 0.0043
3 | AATGTATC | 0.167
4 | AGAAGAAC | 0.0233
5 | CGCATGAA | -0.154
6 | AGGCACAT | -0.101
7 | CACACACA | -0.0394
8 | AACATGAG | -0.125
9 | ATGGCAAA | 0.039
10 | AAACATCC | -0.0177
11 | CTACACGA | 0.0194
12 | CTAACTAG | 0.302
13 | CAGCAGAA | -0.176
14 | CCTGCGAA | -0.033
15 | GCGTCGAA | -0.0605
16 | CCCATCCC | -0.319
17 | TCCCGTCA | -0.0175
18 | CGCGATGA | -0.0517
19 | AATCGAGG | -0.0701
20 | AATGTCTG | -0.0542
21 | CTCCACAG | -0.327
22 | AGCAGGGA | -0.0562
23 | AAAACCGA | 0.173
24 | CCTGAAGA | 0.0536
25 | GAACGACC | -0.258

Row | Sequence | PBM E-score
26 | TCATGACA | 0.124
27 | ATTAATCA | 0.235
28 | ATGTACCC | -0.0323
29 | ACAACCAG | 0.0393
30 | CAATGTAA | 0.0482
31 | CAAGTGAG | -0.146
32 | AATAGAGT | -0.0302
33 | TAAAACGA | -0.0128
34 | ACATTCCA | 0.177
35 | TGCTTCAA | 0.0485
36 | GGCTGCAA | -0.0943
37 | ACCTGCCA | -0.272
38 | ATCCCAGA | -0.198
39 | TCTATGAA | 0.102
40 | CCAAAACA | -0.0644
41 | CCACAGAG | -0.208
42 | AACCGGAC | 0.345
43 | ACGGAAAA | 0.243
44 | CGCGAGAG | -0.0211
45 | ATGGTCAC | -0.0331
46 | AGTCACAT | 0.0198
47 | TGTGGTAA | 0.0309
48 | CGTTAAGA | -0.00015
49 | TAATCGGA | 0.308
50 | ATCCTCGA | -0.12

Row | Sequence | PBM E-score
51 | CTCACAAC | 0.0656
52 | GAGATCCC | 0.118
53 | ACCGGCCA | -0.164
54 | AGGCCGCC | -0.331
55 | ACCTCAGA | -0.224
56 | GAGATAAA | 0.196
57 | AATGGATC | 0.0349
58 | ATGTAGCG | -0.181
59 | ACCTCTCG | -0.047
60 | AGGCAGTG | -0.0722
61 | ATAGAGGA | -0.169
62 | ATAGGGTG | -0.0316
63 | GTTGGATA | 0.0887
64 | TCATATCA | 0.0743
65 | CCATCCAC | -0.15
66 | CCGCAACG | 0.132
67 | ATTATCAA | 0.216
68 | AACTGATC | -0.125
69 | AGGCTCTA | -0.156
70 | CCCATCGG | 0.0634
71 | ACTCTTGG | -0.0854
72 | CTCCGACA | 0.375
73 | ATCGCTCC | -0.0547
74 | TCAAGAGA | 0.0718
75 | CATAAGGA | -0.134

Row | Sequence | PBM E-score
76 | AGTCATCC | -0.01
77 | GCGCGTAC | 0.0594
78 | CAGCCCGG | -0.0483
79 | CAGGATCG | -0.177
80 | ACTAGCGC | -0.066
81 | CCCGGAAA | 0.234
82 | AAAGAGAG | 0.00234
83 | AATGGAAG | -0.0298
84 | CTGCCGAA | 0.095
85 | CACTACCC | -0.269
86 | ACGACATC | -0.166
87 | ACTGGCGA | -0.352
88 | CCTGGAAG | -0.246
89 | ACACCGAG | 0.186
90 | CAATTTCG | 0.0158
91 | ACTAATCA | 0.139
92 | TACGGGAA | -0.264
93 | AGGAGTTA | 0.164
94 | CGGGAGAA | -0.00885
95 | ACCACCCG | -0.316
96 | AACGTATG | -0.0742
97 | CAAGAGGG | -0.225
98 | ATGGATGA | -0.0218
99 | CCTCATGA | -0.0557
100 | TCACATCA | -0.011

Row | Sequence | PBM E-score
101 | AGGGCTAT | -0.211
102 | ACCTAGTC | -0.0573
103 | ATCCGTTG | 0.121
104 | TACACGAA | 0.239
105 | GACCACCC | -0.232
106 | ACCTTGAA | 0.0129
107 | CCGGAGCC | 0.396
108 | ATACGATA | 0.209
109 | GCCTGGCC | -0.145
110 | CCTATCCA | -0.0287
111 | GACTATGC | 0.0066
112 | ACGTAAGT | -0.0302
113 | AAGCCTTG | -0.109
114 | ACGAACTG | -0.123
115 | AAATTACG | 0.17
116 | AGGGATGC | -0.255
117 | ACTATGAC | -0.0263
118 | ATTTGTCG | 0.153
119 | GCTCAGCC | -0.158
120 | GGGACCAA | -0.115
121 | AAGGATTC | -0.201
122 | CAAACTAA | 0.276
123 | AATATACT | 0.277
124 | AGTAGTAG | -0.00718
125 | CCTTACAA | -0.0231

Row | Sequence | PBM E-score
126 | ACTTGCCC | -0.116
127 | CTCCGCCA | 0.171
128 | GAGGGGCC | -0.25
129 | TATGGTGA | 0.031
130 | CGATCCCG | -0.145
131 | CTGTCGGC | 0.00912
132 | AGCGTGGC | -0.0467
133 | AATCTATG | 0.111
134 | GATTTGAC | -0.0268
135 | CCAGCTGC | -0.124
136 | CGAAACCC | 0.0597
137 | ACACGCTG | -0.187
138 | ATAAGCTC | 0.149
139 | ACTTCGCT | 0.00937
140 | CATAGTTA | 0.133
141 | CCCTGACA | -0.211
142 | CCCCGCGA | -0.0503
143 | ATAGCCCA | -0.013
144 | CAATTTGA | 0.215
145 | TACAACGA | 0.0849
146 | CGGAGGTC | 0.235
147 | GAGGACAA | -0.223
148 | CAAGTGTA | 0.00933
149 | ACAAGGAA | 0.0178
150 | CTACTATA | 0.281

Row | Sequence | PBM E-score
151 | GCGCGCAA | -0.131
152 | AAGTTGGT | 0.188
153 | ACAATCCC | 0.12
154 | AGTACTCA | 0.0483
155 | CCGGGATA | 0.113
156 | CGCCGTCC | 0.00935
157 | GGGGGTTA | -0.405
158 | GTACCGGA | 0.342
159 | AGTCGTGA | -0.169
160 | CGGGCGAC | -0.232
161 | CTATGTGC | 0.00565
162 | ACTAGAGA | 0.0596
163 | AGCATGCG | 0.0622
164 | CCGGTCTC | 0.0394
165 | AGCAGAAC | -0.0462
166 | CGGGAATA | 0.194
167 | GGGGTTAC | -0.00588
168 | CTTGGACC | -0.338
169 | GACCATAC | -0.00899
170 | GGCGACCC | -0.172
171 | ACGTTGGC | -0.126
172 | CGTATTGC | -0.0654
